This is one part of the list.
B1: chr16:57253408:57253449:+|3pUTR|ENSG00000102931|msi1_unk|total|mutant (ssRNA)
RNA: GGGAGUUCUACAGUCCGACGAUCUGUGUGGCCGAUUACUUAUCAGAAAACAUAUAUGUCAUCUCCCGAACGAAGAAAAAGCACCGCCGUUCAAUUCCCAGUGUGUCCCUUUGAUUUUUUUUUUUUAACCGUAAAAAUAAGAAUCAACAGAGGAUUGAGCAUCA
B2: chr2:130462818:130464144:-|CDS|ENSG00000196834|control|control|control (ssRNA)
RNA: GGGAGUUCUACAGUCCGACGAUCACCACCAUGUACCCUGGCAUGGCCCACAGAAUGCAGAAGGAGAUCGCUGCCCUGGCGCCUAGCAUGUUGAAGAUCAGGAUCAUUGCUCCUCCCAAGCGCAAGUACUCCGUGUGGGUCGGUCAACAGAGGAUUGAGCAUCA
B3: chr14:52327222:52327364:+|CDS|ENSG00000125384|unk|FALSE|unique (ssRNA)
RNA: GGGAGUUCUACAGUCCGACGAUCAUUUUUGCAUAUAUGAAUGAAACCUCUUCCCGAAAGGAAAAAUGGGACCUCCAAGCUCUUAGGUUUUUAUCAAUUAAUUCAAUAAUUGACCCUUGGGUCUUUGCCAUCCUUAGGCCUCCUCAACAGAGGAUUGAGCAUCA
B4: chr6:132328510:132328611:-|CDS|ENSG00000079931|msi1|FALSE|unique (ssRNA)
RNA: GGGAGUUCUACAGUCCGACGAUCUUGUGGGAUGUUGUAGGGUGGUCUUAUUUAUUGUGUCCUCCCUCUCAUUUAUGUUCGUGUAGGUUGAGCCAGUGAUACAGAGAGGCCAUGAGAGUCUGGUGCACCACAUCCUGCUCUAUCCAACAGAGGAUUGAGCAUCA
B5: chr10:119167843:119167906:-|3pUTR|ENSG00000165672|msi1_unk|total|mutant (ssRNA)
RNA: GGGAGUUCUACAGUCCGACGAUCUGCAUGAUCCCUCAUCCCUGAAAUUGAGUUUAUGCCGUCAUUUUACUUAUUUUAUUCAUCCGCUAACUUUGUCUAUGUAUAUUUCCCGAUAUUGAUCCGUGUAAUCGAUUAUAAAGGAUACAACAGAGGAUUGAGCAUCA
B6: ENSG00000198589:be:win_8151|CDS|ENSG00000198589|bound_else_gene|NA|bound_elsewhere_windowed (ssRNA)
RNA: GGGAGUUCUACAGUCCGACGAUCAGACUUGUUGAGGACCUUGGAGGGUCCUGAAAACUGCCUGAAACCAAAACUCAUUCAGGCUUCAAGAGAGGGUCAUUGUGUCAUAUUCUAUGAAAACGGCCUCUUCUGUACAUUCAGUGUCAACAGAGGAUUGAGCAUCA
B7: ENSG00000136451:be:win_2601|3pUTR|ENSG00000136451|bound_else_gene|NA|bound_elsewhere_windowed (ssRNA)
RNA: GGGAGUUCUACAGUCCGACGAUCCACUAACUAGGUAGUGUAUGCCCCUUCAGAACAUGCAGAGUGUAUCUUUUUUUAAAUUUCUCCUUCCGUUUCUUAAGUAUUGCGCAGAUUUGUUCAACUUUGUAAAUAUGGACAUCACUUCAACAGAGGAUUGAGCAUCA
B8: chr9:125307754:125307855:+|CDS|ENSG00000165219|unk|FALSE|unique (ssRNA)
RNA: GGGAGUUCUACAGUCCGACGAUCGGCUCUUGACAAUUUAUUGGCAAACCUACCCCCGGCCAAGCCAGGAAAAAGUAGCAGUUUAGAAAUGACUCCCUACAAUACACCUCAGCUAUCUCCAGCAACCACUCCAGCAAAUAAAAACAACAGAGGAUUGAGCAUCA
B9: chr1:209614869:209615270:-|three_prime_utr|ENSG00000196878|control|control|control (ssRNA)
RNA: GGGAGUUCUACAGUCCGACGAUCUUCCAUCUCCAGGAGACUUUCAUGCAGCCUAAAGUACAGCCUGGACCACCCCUGGUGUGUAGCUAGUAAGAUUACCCUGAGCUGCAGCUGAGCCUGAGCCAAUGGGACAGUUACACUUGACAACAGAGGAUUGAGCAUCA
B10: ENSG00000090857:stop:overlap|stop_codon|ENSG00000090857|stop_codon|NA|stop_codon (ssRNA)
RNA: GGGAGUUCUACAGUCCGACGAUCGGUGGAUGGAGAAACAUGGAUUUGAGAGGCCAAAGUACUUUGUUCCCCCCGACAAGGGCUAGAAUGUGUUCACAGAAGAAAAAGAACCACGUGGACUACACUAAACUCUACAGGGCCUUGCAACAGAGGAUUGAGCAUCA
B11: chr5:149977868:149977977:+|CDS|ENSG00000155850|unk|total|mutant (ssRNA)
RNA: GGGAGUUCUACAGUCCGACGAUCUAUUAAAAAGCUGCAGAAGAAUUGCCAGUGCAGUCCAGCCAAAGCCAAAAAUAUGAUUUCCGGUUUCCUUCCUGUUUUGCAGUGGCUCCCAAAAUACGACCUAAAGAAAAACAUUUCCGGCAACAGAGGAUUGAGCAUCA
B12: chr6:7881277:7881391:+|3pUTR|ENSG00000153162|unk|total|mutant (ssRNA)
RNA: GGGAGUUCUACAGUCCGACGAUCGCUGUUUAUGAACGGAAAUCAUGAUUUCCCUUGCCGAAAGUGAGGCUCAGAUUAAAUUUCCGAAUAUUUUCUAAAUGUCUUUUUCACAAUCAUGUACUGGGAAGGCAAUUUCAUACUAAACAACAGAGGAUUGAGCAUCA
B13: chr19:57593639:57593745:+|3pUTR|ENSG00000171649|unk|FALSE|unique (ssRNA)
RNA: GGGAGUUCUACAGUCCGACGAUCUGAACCUUCUUAUUUCUCUACAUUCUUGCCAUACUUGGUAUGGUUAGUCUUUUUAAUUUUAGUUGUUUUAAUAGCUGUAUAAUAGCAUCUGUCUGUGAUUUUAUUGCAUUUUUCUGGUAUCAACAGAGGAUUGAGCAUCA
B14: chr3:170465896:170466000:-|3pUTR|ENSG00000013293|unk|total|mutant (ssRNA)
RNA: GGGAGUUCUACAGUCCGACGAUCACUCCGGCCGUUGCAUUCCAUGAGAUCACAUUUCACUUCUGAACCUUAUUCCUUGGGGCCCGCUCACUUUCAGAGGUGUAUUUUUUUUUCCUGUUAUUUCCCAGAGCCGUUUCACUGAAGCAACAGAGGAUUGAGCAUCA

What follows are binders tested against MSI1 full-length (mouse, UniProt Q61474 1-362) (assay: nsRBNS (natural sequence RNA bind-n-seq); RBNS binding buffer (assumed for nsRBNS): 25 mM Tris pH 7.5, 150 mM KCl, 3 mM MgCl2, 0.01% Triton X-100, 500 ug/ml BSA, 20 U/ml SUPERase-In, 4 C; UNK is unkempt and MSI1 is Musashi-1; names of the RNAs are library labels; protein concentration not given here; high values mean tight binding).
Chain of UniProt Q61474 (Q61474 whole entry): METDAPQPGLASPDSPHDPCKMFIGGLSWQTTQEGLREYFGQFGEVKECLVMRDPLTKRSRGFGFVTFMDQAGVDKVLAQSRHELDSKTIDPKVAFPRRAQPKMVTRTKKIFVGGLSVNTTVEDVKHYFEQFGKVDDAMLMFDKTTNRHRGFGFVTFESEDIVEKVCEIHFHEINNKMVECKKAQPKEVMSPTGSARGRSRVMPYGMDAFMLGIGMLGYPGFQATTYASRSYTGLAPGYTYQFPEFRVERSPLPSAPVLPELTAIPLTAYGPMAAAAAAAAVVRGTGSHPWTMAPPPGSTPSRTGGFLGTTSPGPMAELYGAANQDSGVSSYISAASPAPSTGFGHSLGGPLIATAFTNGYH
Work on B1 yielded a binding signal of 0.465 enrichment R.
Binder B2 has a binding signal of 0.506 enrichment R.
Work on B3 yielded a binding signal of 0.397 enrichment R.
Binder B4 has a binding signal of 0.912 enrichment R.
B5 showed a binding signal of 2.84 enrichment R.
B6 was tested, and the binding signal was 0.254 enrichment R.
In the case of B7, the binding signal is reported as 5.52 enrichment R.
With B8 the binding signal was 1.22 enrichment R.
For B9, the binding signal was 0.551 enrichment R.
In the case of B10, the binding signal is reported as 0.544 enrichment R.
B11 showed a binding signal of 0.245 enrichment R.
Work on B12 yielded a binding signal of 0.37 enrichment R.
Work on B13 yielded a binding signal of 19.1 enrichment R.
In the case of B14, the binding signal is reported as 0.51 enrichment R.
